By IC50 is meant the dose at which the fit gives 50% viability; fits outside the tested doses are given as limits. The AUC spans the tested range (256-fold, ending at the top dose) of the same fit: 1 means no effect, lower means more sensitive. Where the top dose is marked as inferred, it was derived from the fitted curves, not read from the paper.

One may read the IC50 as the midpoint of a concentration-inhibition curve.

Compound in this experiment: CCn1cc(-c2ccnc3[nH]c(-c4cccc(CN(C)C)c4)cc23)c(-c2ccc(NC(=O)N(C)C)cc2)n1 [GSK1070916]
Put plainly: Viability of human cancer cell lines after 72 h of drug (GDSC screen). To be noted: top dose inferred. The method, then: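 Human cancer cell lines in 384-well plates, medium with 10% serum, drug for 72 h over a 256-fold dose range (nine 2-fold or five 4-fold steps up to the top dose). Adherent lines were fixed and stained with the nucleic acid dye Syto60, suspension lines read with resazurin; signal relative to control wells, capped at 0 and 100%. One two-parameter sigmoid per drug and line, fitted in a mixed model over all curves with the slope shared within a line.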
Turning to “Mewo (melanoma, adherent, top dose 2.56 µM)”, the AUC worked out at 0.985 and the IC50 was above 2.56 µM.

For the cell line “Mo-T (hairy cell leukaemia, suspension, top dose 2.56 µM)”, the AUC worked out at 0.92 and the IC50 is above 2.56 µM.

Consider “NALM-6 (B-cell leukaemia, suspension, top dose 2.56 µM)”, for which the AUC turned out to be 0.046 and the IC50 was below 0.01 µM.

Take “NAMALWA (Burkitt lymphoma, suspension, top dose 2.56 µM)”: the AUC turned out to be 0.865 and the IC50 was 1.7 µM.

“NB5 (neuroblastoma, adherent, top dose 2.56 µM)”: the AUC was 0.86 and the IC50 amounted to 2.18 µM.

In the case of “NB6 (neuroblastoma, adherent, top dose 2.56 µM)”, the AUC is 0.645 and the IC50 stood at 0.446 µM.

Consider “NB7 (neuroblastoma, adherent, top dose 2.56 µM)”, for which the AUC is 0.84 and the half-maximal inhibitory concentration (IC50) stood at 1.88 µM.

In the case of “NB10 (neuroblastoma, adherent, top dose 2.56 µM)”, the AUC was determined as 0.784 and the IC50 was 1.06 µM.

Take “NB12 (neuroblastoma, adherent, top dose 2.56 µM)”: the AUC was determined as 0.833 and the concentration for half-maximal inhibition (IC50) is 2.51 µM.

Consider “NB13 (neuroblastoma, adherent, top dose 2.56 µM)”, for which the AUC came out at 0.955 and the IC50 was above 2.56 µM.

Take “NB14 (neuroblastoma, adherent, top dose 2.56 µM)”: the AUC stood at 0.949 and the IC50 was above 2.56 µM.

On to “NB17 (neuroblastoma, adherent, top dose 2.56 µM)”, for which the AUC amounted to 0.961 and the IC50 is above 2.56 µM.

Take “NB69 (neuroblastoma, adherent, top dose 2.56 µM)”: the AUC was found to be 0.746 and the IC50 came to 0.736 µM.

As to “NB(TU)1-10 (neuroblastoma, adherent, top dose 2.56 µM)”, the AUC was 0.993 and the IC50 was above 2.56 µM.

With “NB-4 (acute myeloid leukaemia, suspension, top dose 2.56 µM)”, the AUC was determined as 0.264 and the IC50 was 0.0397 µM.

As for “NCC021 (kidney, adherent, top dose 2.56 µM)”, the AUC came to 0.985 and the IC50 is above 2.56 µM.

As for “NCI-H23 (lung adenocarcinoma, adherent, top dose 2.56 µM)”, the AUC was 0.988 and the IC50 was above 2.56 µM.

On to “NCI-H28 (mesothelioma, adherent, top dose 2.56 µM)”, for which the AUC was found to be 0.958 and the IC50 was above 2.56 µM.

For the cell line “NCI-H64 (small cell lung carcinoma, suspension, top dose 2.56 µM)”, the AUC turned out to be 0.996 and the IC50 is above 2.56 µM.

Take “NCI-H69 (small cell lung carcinoma, suspension, top dose 2.56 µM)”: the AUC came to 0.866 and the IC50 is above 2.56 µM.

For “NCI-H187 (small cell lung carcinoma, suspension, top dose 2.56 µM)”, the AUC worked out at 0.732 and the IC50 was found to be 0.785 µM.

Turning to “NCI-H196 (small cell lung carcinoma, adherent, top dose 2.56 µM)”, the AUC is 0.93 and the IC50 is above 2.56 µM.

On to “NCI-H209 (small cell lung carcinoma, suspension, top dose 2.56 µM)”, for which the AUC came to 0.618 and the IC50 worked out at 0.347 µM.

With “NCI-H211 (small cell lung carcinoma, adherent, top dose 2.56 µM)”, the AUC amounted to 0.777 and the IC50 stood at 0.996 µM.

With “NCI-H226 (lung squamous cell carcinoma, adherent, top dose 2.56 µM)”, the AUC amounted to 0.937 and the IC50 was above 2.56 µM.

Consider “NCI-H292 (lung adenocarcinoma, adherent, top dose 2.56 µM)”, for which the AUC was 0.955 and the IC50 was above 2.56 µM.

Turning to “NCI-H322M (lung adenocarcinoma, suspension, top dose 2.56 µM)”, the AUC was 0.956 and the IC50 was above 2.56 µM.

Turning to “NCI-H345 (small cell lung carcinoma, suspension, top dose 2.56 µM)”, the AUC is 0.99 and the IC50 was above 2.56 µM.

For “NCI-H358 (lung adenocarcinoma, adherent, top dose 2.56 µM)”, the AUC came out at 0.862 and the IC50 is above 2.56 µM.

Regarding “NCI-H441 (lung adenocarcinoma, adherent, top dose 2.56 µM)”, the AUC amounted to 0.981 and the IC50 was above 2.56 µM.

Regarding “NCI-H446 (small cell lung carcinoma, semi-adherent, top dose 2.56 µM)”, the AUC was determined as 0.601 and the half-inhibitory concentration (IC50) was found to be 0.309 µM.

Turning to “NCI-H460 (large cell lung carcinoma, adherent, top dose 2.56 µM)”, the AUC is 0.99 and the IC50 was above 2.56 µM.

As to “NCI-H510A (small cell lung carcinoma, semi-adherent, top dose 2.56 µM)”, the AUC is 0.874 and the IC50 amounted to 2.14 µM.

As to “NCI-H520 (lung squamous cell carcinoma, adherent, top dose 2.56 µM)”, the AUC was 0.86 and the IC50 amounted to 2.25 µM.

As for “NCI-H522 (lung adenocarcinoma, adherent, top dose 2.56 µM)”, the AUC was 0.973 and the IC50 was above 2.56 µM.

With “NCI-H524 (small cell lung carcinoma, suspension, top dose 2.56 µM)”, the AUC was 0.057 and the 50% inhibitory concentration (IC50) was below 0.01 µM.

With “NCI-H526 (small cell lung carcinoma, suspension, top dose 2.56 µM)”, the AUC stood at 0.867 and the IC50 is 2.14 µM.

For the cell line “NCI-H596 (lung adenocarcinoma, adherent, top dose 2.56 µM)”, the AUC was found to be 0.924 and the IC50 was above 2.56 µM.

In the case of “NCI-H630 (large intestine, adherent, top dose 2.56 µM)”, the AUC amounted to 0.956 and the IC50 was above 2.56 µM.

For the cell line “NCI-H647 (non-small cell lung carcinoma, adherent, top dose 2.56 µM)”, the AUC was 0.803 and the IC50 was found to be 1.35 µM.

Regarding “NCI-H650 (lung adenocarcinoma, adherent, top dose 2.56 µM)”, the AUC was determined as 0.938 and the IC50 was above 2.56 µM.

For the cell line “NCI-H661 (large cell lung carcinoma, adherent, top dose 2.56 µM)”, the AUC is 0.948 and the IC50 was above 2.56 µM.

As for “NCI-H716 (large intestine, suspension, top dose 2.56 µM)”, the AUC worked out at 0.725 and the IC50 was 0.834 µM.

On to “NCI-H720 (lung carcinoid, suspension, top dose 2.56 µM)”, for which the AUC came to 0.987 and the IC50 is above 2.56 µM.

As for “NCI-H727 (lung carcinoid, adherent, top dose 2.56 µM)”, the AUC was found to be 0.918 and the IC50 was above 2.56 µM.

On to “NCI-H747 (large intestine, adherent, top dose 2.56 µM)”, for which the AUC was 0.861 and the IC50 was above 2.56 µM.

In the case of “NCI-H748 (small cell lung carcinoma, suspension, top dose 2.56 µM)”, the AUC is 0.781 and the IC50 amounted to 1.38 µM.

With “NCI-H810 (large cell lung carcinoma, adherent, top dose 2.56 µM)”, the AUC came out at 0.753 and the IC50 stood at 0.823 µM.

For “NCI-H838 (lung adenocarcinoma, adherent, top dose 2.56 µM)”, the AUC amounted to 0.985 and the concentration for half-maximal inhibition (IC50) was above 2.56 µM.

In the case of “NCI-H841 (small cell lung carcinoma, adherent, top dose 2.56 µM)”, the AUC was 0.971 and the IC50 was above 2.56 µM.

In the case of “NCI-H847 (small cell lung carcinoma, adherent, top dose 2.56 µM)”, the AUC was 0.044 and the IC50 is below 0.01 µM.

Regarding “NCI-H1092 (small cell lung carcinoma, suspension, top dose 2.56 µM)”, the AUC is 0.93 and the IC50 was above 2.56 µM.

Consider “NCI-H1155 (large cell lung carcinoma, suspension, top dose 2.56 µM)”, for which the AUC was found to be 0.968 and the IC50 is above 2.56 µM.

Regarding “NCI-H1299 (large cell lung carcinoma, adherent, top dose 2.56 µM)”, the AUC stood at 0.928 and the IC50 was above 2.56 µM.

Take “NCI-H1304 (small cell lung carcinoma, suspension, top dose 2.56 µM)”: the AUC worked out at 0.625 and the IC50 came to 0.364 µM.

For “NCI-H1355 (lung adenocarcinoma, adherent, top dose 2.56 µM)”, the AUC came to 0.972 and the half-inhibitory concentration (IC50) was above 2.56 µM.

For the cell line “NCI-H1395 (lung adenocarcinoma, adherent, top dose 2.56 µM)”, the AUC was 0.98 and the half-maximal inhibitory concentration (IC50) is above 2.56 µM.

For “NCI-H1417 (small cell lung carcinoma, suspension, top dose 2.56 µM)”, the AUC stood at 0.783 and the IC50 was determined as 1.3 µM.

“NCI-H1435 (lung adenocarcinoma, semi-adherent, top dose 2.56 µM)”: the AUC came out at 0.986 and the IC50 was above 2.56 µM.

On to “NCI-H1436 (small cell lung carcinoma, suspension, top dose 2.56 µM)”, for which the AUC is 0.838 and the IC50 was found to be 2.1 µM.

The values above are taken from the supplement of paper PMC4967469.
